From paper PMC12820563, “FoxP3 forms a head-to-head dimer in vivo and stabilizes its multimerization on adjacent microsatellites”
This is one part of the list.

Biological target: T1, MBP-FoxP1dN (Mus musculus, UniProt P58462 326-579)
T1 sequence: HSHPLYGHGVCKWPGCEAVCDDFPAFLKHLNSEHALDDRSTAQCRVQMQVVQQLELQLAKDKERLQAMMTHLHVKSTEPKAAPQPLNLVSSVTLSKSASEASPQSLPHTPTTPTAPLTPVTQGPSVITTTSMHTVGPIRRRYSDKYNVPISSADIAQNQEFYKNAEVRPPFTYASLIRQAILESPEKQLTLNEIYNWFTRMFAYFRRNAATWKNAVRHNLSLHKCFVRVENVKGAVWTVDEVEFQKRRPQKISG
Assay: PD-seq (MBP pull-down with sequencing); 20 mM Tris-HCl pH 7.5, 100 mM NaCl, 1.5 mM MgCl2, 0.4 uM protein, 0.1 uM dsDNA library, 30 min, room temperature, amylose pull-down; high values mean tight binding
Conditions: protein: recombinant; tags: His6-MBP; chain copies: 2; dsDNA, one strand shown
How it was run: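 Protein and DNA were mixed at 0.4 µM and 0.1 µM and held for 30 min at room temperature in Tris pH 7.5 buffer with NaCl and MgCl2; the protein was a His6-MBP-tagged, N-terminally truncated mouse FoxP3 or FoxP1 fragment from E. coli, and the DNA a Klenow-filled double-stranded degenerate library. Amylose resin captured the complexes, which were washed three times. Binding is read as reads-per-million enrichment of pull-down versus input after Illumina sequencing, with replicates pooled.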

Sequence	binding signal
GATGATTGTTCTCCCAGCTGATGAATTGGATGATTCGAGTAAACAAATTTTCCTAATCTTTCTGTTCAAGCGCCATCTAC	0.976 RPM ratio (pull-down/input)
GATGATTGTTCTCCCAGCTGATGAATTCCATGCTTCGAGTAAACAAATTTTCCTAATCTTTCTGTTCAAGCGCCATCTAC	0.836 RPM ratio (pull-down/input)
GATGATTGTTCTCCCAGCTGATGAATTGTTAGTCTCGAGTAAACAAATTTTCCTAATCTTTCTGTTCAAGCGCCATCTAC	1.53 RPM ratio (pull-down/input)
GATGATTGTTCTCCCAGCTGATGAATTAGCGCCGTCGAGTAAACAAATTTTCCTAATCTTTCTGTTCAAGCGCCATCTAC	0.813 RPM ratio (pull-down/input)
GATGATTGTTCTCCCAGCTGATGAATTTTGGTGATCGAGTAAACAAATTTTCCTAATCTTTCTGTTCAAGCGCCATCTAC	1.01 RPM ratio (pull-down/input)
GATGATTGTTCTCCCAGCTGATGAATTGGAGGTCTCGAGTAAACAAATTTTCCTAATCTTTCTGTTCAAGCGCCATCTAC	0.723 RPM ratio (pull-down/input)
GATGATTGTTCTCCCAGCTGATGAATTGCGACACTCGAGTAAACAAATTTTCCTAATCTTTCTGTTCAAGCGCCATCTAC	1.08 RPM ratio (pull-down/input)
GATGATTGTTCTCCCAGCTGATGAATTACGTACGTCGAGTAAACAAATTTTCCTAATCTTTCTGTTCAAGCGCCATCTAC	1.07 RPM ratio (pull-down/input)
GATGATTGTTCTCCCAGCTGATGAATTTGCCCTGTCGAGTAAACAAATTTTCCTAATCTTTCTGTTCAAGCGCCATCTAC	0.858 RPM ratio (pull-down/input)
GATGATTGTTCTCCCAGCTGATGAATTACCAGCATCGAGTAAACAAATTTTCCTAATCTTTCTGTTCAAGCGCCATCTAC	1.1 RPM ratio (pull-down/input)
GATGATTGTTCTCCCAGCTGATGAATTAAGAACTTCGAGTAAACAAATTTTCCTAATCTTTCTGTTCAAGCGCCATCTAC	0.846 RPM ratio (pull-down/input)
GATGATTGTTCTCCCAGCTGATGAATTCACGCCGTCGAGTAAACAAATTTTCCTAATCTTTCTGTTCAAGCGCCATCTAC	0.904 RPM ratio (pull-down/input)
GATGATTGTTCTCCCAGCTGATGAATTTACTAATTCGAGTAAACAAATTTTCCTAATCTTTCTGTTCAAGCGCCATCTAC	1.52 RPM ratio (pull-down/input)
GATGATTGTTCTCCCAGCTGATGAATTCTGTGAGTCGAGTAAACAAATTTTCCTAATCTTTCTGTTCAAGCGCCATCTAC	0.863 RPM ratio (pull-down/input)
GATGATTGTTCTCCCAGCTGATGAATTGTCCCGCTCGAGTAAACAAATTTTCCTAATCTTTCTGTTCAAGCGCCATCTAC	0.906 RPM ratio (pull-down/input)
GATGATTGTTCTCCCAGCTGATGAATTAAACATCTCGAGTAAACAAATTTTCCTAATCTTTCTGTTCAAGCGCCATCTAC	1.29 RPM ratio (pull-down/input)
GATGATTGTTCTCCCAGCTGATGAATTGGCATGATCGAGTAAACAAATTTTCCTAATCTTTCTGTTCAAGCGCCATCTAC	0.943 RPM ratio (pull-down/input)
GATGATTGTTCTCCCAGCTGATGAATTAGAAGCCTCGAGTAAACAAATTTTCCTAATCTTTCTGTTCAAGCGCCATCTAC	0.893 RPM ratio (pull-down/input)
GATGATTGTTCTCCCAGCTGATGAATTCCCACGGTCGAGTAAACAAATTTTCCTAATCTTTCTGTTCAAGCGCCATCTAC	0.785 RPM ratio (pull-down/input)
GATGATTGTTCTCCCAGCTGATGAATTGTCAGGGTCGAGTAAACAAATTTTCCTAATCTTTCTGTTCAAGCGCCATCTAC	0.837 RPM ratio (pull-down/input)
GATGATTGTTCTCCCAGCTGATGAATTTACAACCTCGAGTAAACAAATTTTCCTAATCTTTCTGTTCAAGCGCCATCTAC	1.21 RPM ratio (pull-down/input)

Sequence	binding signal
GATGATTGTTCTCCCAGCTGATGAATTTGGAGCGTCGAGTAAACAAATTTTCCTAATCTTTCTGTTCAAGCGCCATCTAC	0.854 RPM ratio (pull-down/input)
GATGATTGTTCTCCCAGCTGATGAATTCGTCAGGTCGAGTAAACAAATTTTCCTAATCTTTCTGTTCAAGCGCCATCTAC	0.808 RPM ratio (pull-down/input)
GATGATTGTTCTCCCAGCTGATGAATTTTGCCGATCGAGTAAACAAATTTTCCTAATCTTTCTGTTCAAGCGCCATCTAC	0.87 RPM ratio (pull-down/input)
GATGATTGTTCTCCCAGCTGATGAATTTGATAGATCGAGTAAACAAATTTTCCTAATCTTTCTGTTCAAGCGCCATCTAC	0.908 RPM ratio (pull-down/input)
GATGATTGTTCTCCCAGCTGATGAATTCGCATTATCGAGTAAACAAATTTTCCTAATCTTTCTGTTCAAGCGCCATCTAC	1.24 RPM ratio (pull-down/input)
GATGATTGTTCTCCCAGCTGATGAATTAAACTCTTCGAGTAAACAAATTTTCCTAATCTTTCTGTTCAAGCGCCATCTAC	0.825 RPM ratio (pull-down/input)
GATGATTGTTCTCCCAGCTGATGAATTCAGCCTATCGAGTAAACAAATTTTCCTAATCTTTCTGTTCAAGCGCCATCTAC	0.849 RPM ratio (pull-down/input)
GATGATTGTTCTCCCAGCTGATGAATTAGTGGTCTCGAGTAAACAAATTTTCCTAATCTTTCTGTTCAAGCGCCATCTAC	0.927 RPM ratio (pull-down/input)
GATGATTGTTCTCCCAGCTGATGAATTCCTAAATTCGAGTAAACAAATTTTCCTAATCTTTCTGTTCAAGCGCCATCTAC	0.915 RPM ratio (pull-down/input)
GATGATTGTTCTCCCAGCTGATGAATTGCGGGTTTCGAGTAAACAAATTTTCCTAATCTTTCTGTTCAAGCGCCATCTAC	1.02 RPM ratio (pull-down/input)
GATGATTGTTCTCCCAGCTGATGAATTAGCCGTTTCGAGTAAACAAATTTTCCTAATCTTTCTGTTCAAGCGCCATCTAC	0.852 RPM ratio (pull-down/input)
GATGATTGTTCTCCCAGCTGATGAATTGCATATGTCGAGTAAACAAATTTTCCTAATCTTTCTGTTCAAGCGCCATCTAC	1.25 RPM ratio (pull-down/input)
GATGATTGTTCTCCCAGCTGATGAATTCTCGCGATCGAGTAAACAAATTTTCCTAATCTTTCTGTTCAAGCGCCATCTAC	0.871 RPM ratio (pull-down/input)
GATGATTGTTCTCCCAGCTGATGAATTCTAGCACTCGAGTAAACAAATTTTCCTAATCTTTCTGTTCAAGCGCCATCTAC	0.855 RPM ratio (pull-down/input)
GATGATTGTTCTCCCAGCTGATGAATTGTGGGGTTCGAGTAAACAAATTTTCCTAATCTTTCTGTTCAAGCGCCATCTAC	0.939 RPM ratio (pull-down/input)
GATGATTGTTCTCCCAGCTGATGAATTGCGGGGGTCGAGTAAACAAATTTTCCTAATCTTTCTGTTCAAGCGCCATCTAC	0.857 RPM ratio (pull-down/input)
GATGATTGTTCTCCCAGCTGATGAATTGATCCAGTCGAGTAAACAAATTTTCCTAATCTTTCTGTTCAAGCGCCATCTAC	0.941 RPM ratio (pull-down/input)
GATGATTGTTCTCCCAGCTGATGAATTGGAATTTTCGAGTAAACAAATTTTCCTAATCTTTCTGTTCAAGCGCCATCTAC	0.898 RPM ratio (pull-down/input)
GATGATTGTTCTCCCAGCTGATGAATTTAATCTTTCGAGTAAACAAATTTTCCTAATCTTTCTGTTCAAGCGCCATCTAC	0.952 RPM ratio (pull-down/input)
GATGATTGTTCTCCCAGCTGATGAATTTGCCCTTTCGAGTAAACAAATTTTCCTAATCTTTCTGTTCAAGCGCCATCTAC	0.915 RPM ratio (pull-down/input)
